Measurements as given in US11000038B2, “Pyridone compounds and agricultural and horticultural fungicides containing the same as active ingredients” (priority 2017, dated 2021).

Legend:
[1] = test system: gray mold fungi (Botrytis cinerea); assay: Test Example B: tomato gray mold, spray treatment of tomato plants; settings: tomato gray mold, spray treatment
[2] = test system: grape downy mildew fungus (Plasmopara viticola); assay: Test Example G: grape downy mildew, spray treatment of grape plants; settings: grape downy mildew, 250 ppm spray, 7 to 10 days after inoculation
[3] = test system: barley powdery mildew fungi (Blumeria graminis f. sp. hordei); assay: Test Example D: barley powdery mildew, spray treatment of barley plants; settings: barley powdery mildew, spray treatment
[4] = test system: wheat brown rust fungi (Puccinia recondita); assay: Test Example E: wheat brown rust, spray treatment of wheat plants; format: in vivo; settings: wheat brown rust, spray treatment
[5] = test system: cabbage Alternaria sooty spot fungi (Alternaia brassicicola); assay: Test Example C: cabbage Alternaria sooty spot, spray treatment of cabbage plants; format: in vivo; settings: cabbage Alternaria sooty spot, spray treatment
Description: [Test Example C] Cabbage Alternaria Sooty Spot
Test plants (cabbage variety: Shikidori) were cultivated until the cotyledons extended after the sowing of seeds.
<Control Value> Control value=100{1−(n/3)}

## Cc1cn(-c2ccccc2)c(-c2ccc(Cl)cc2Cl)c(C)c1=O [Compound 595]
[1]
  Test B control value: H (H shows the control value of more than 50%)
[2]
  Test G control value: L (L shows the control value of 50% or less)
[3]
  Test D control value: L (L shows the control value of 50% or less)
[4]
  Test E control value: H (H shows the control value of more than 50%)
[5]
  Test C control value: H (H shows the control value of more than 50%)

## O=c1c(Br)cn(-c2ccccc2)c(-c2cc(F)ccc2F)c1Cl [Compound 596]
[1]
  Test B control value: L (L shows the control value of 50% or less)
[2]
  Test G control value: L (L shows the control value of 50% or less)
[3]
  Test D control value: L (L shows the control value of 50% or less)
[4]
  Test E control value: L (L shows the control value of 50% or less)
[5]
  Test C control value: H (H shows the control value of more than 50%)

## CCc1c(-c2ccc(F)cc2F)n(-c2ccccc2)cc(Br)c1=O [Compound 597]
[1]
  Test B control value: H (H shows the control value of more than 50%)
[2]
  Test G control value: L (L shows the control value of 50% or less)
[3]
  Test D control value: L (L shows the control value of 50% or less)
[4]
  Test E control value: H (H shows the control value of more than 50%)
[5]
  Test C control value: H (H shows the control value of more than 50%)

## COc1ccccc1-c1c(Cl)c(=O)c(Br)cn1-c1ccccc1 [Compound 599]
[1]
  Test B control value: H (H shows the control value of more than 50%)
[2]
  Test G control value: L (L shows the control value of 50% or less)
[3]
  Test D control value: L (L shows the control value of 50% or less)
[4]
  Test E control value: L (L shows the control value of 50% or less)
[5]
  Test C control value: L (L shows the control value of 50% or less)

## Cc1cn(-c2ccccc2)c(-c2c(F)cccc2C(F)(F)F)c(C)c1=O [Compound 601]
[1]
  Test B control value: H (H shows the control value of more than 50%)
[2]
  Test G control value: L (L shows the control value of 50% or less)
[3]
  Test D control value: H (H shows the control value of more than 50%)
[4]
  Test E control value: H (H shows the control value of more than 50%)
[5]
  Test C control value: H (H shows the control value of more than 50%)

## COc1ccc(Br)c(-n2cc(C)c(=O)c(C)c2-c2c(F)cccc2F)c1 [Compound 602]
[1]
  Test B control value: H (H shows the control value of more than 50%)
[2]
  Test G control value: L (L shows the control value of 50% or less)
[3]
  Test D control value: L (L shows the control value of 50% or less)
[4]
  Test E control value: H (H shows the control value of more than 50%)
[5]
  Test C control value: H (H shows the control value of more than 50%)

## O=c1c(Br)cn(-c2ccccc2)c(-c2cccc(F)c2F)c1Cl [Compound 603]
[1]
  Test B control value: H (H shows the control value of more than 50%)
[2]
  Test G control value: L (L shows the control value of 50% or less)
[3]
  Test D control value: L (L shows the control value of 50% or less)
[4]
  Test E control value: H (H shows the control value of more than 50%)
[5]
  Test C control value: H (H shows the control value of more than 50%)

## O=c1c(Br)cn(-c2ccccc2)c(-c2ccc(F)c(F)c2)c1Cl [Compound 604]
[1]
  Test B control value: L (L shows the control value of 50% or less)
[2]
  Test G control value: L (L shows the control value of 50% or less)
[3]
  Test D control value: L (L shows the control value of 50% or less)
[4]
  Test E control value: L (L shows the control value of 50% or less)
[5]
  Test C control value: H (H shows the control value of more than 50%)

## COc1cccc(-n2cc(C)c(=O)c(C)c2-c2c(F)cccc2F)c1 [Compound 605]
[1]
  Test B control value: H (H shows the control value of more than 50%)
[2]
  Test G control value: L (L shows the control value of 50% or less)
[3]
  Test D control value: H (H shows the control value of more than 50%)
[4]
  Test E control value: H (H shows the control value of more than 50%)
[5]
  Test C control value: H (H shows the control value of more than 50%)

## COc1ccc(-c2c(C)c(=O)c(C)cn2-c2cc(OC)ccc2C)cc1 [Compound 606]
[1]
  Test B control value: H (H shows the control value of more than 50%)
[2]
  Test G control value: H (H shows the control value of more than 50%)
[3]
  Test D control value: H (H shows the control value of more than 50%)
[4]
  Test E control value: H (H shows the control value of more than 50%)
[5]
  Test C control value: H (H shows the control value of more than 50%)

## O=c1c(Br)cn(-c2ccccc2)c(-c2c(F)cccc2Br)c1Cl [Compound 607]
[1]
  Test B control value: H (H shows the control value of more than 50%)
[2]
  Test G control value: L (L shows the control value of 50% or less)
[3]
  Test D control value: L (L shows the control value of 50% or less)
[4]
  Test E control value: H (H shows the control value of more than 50%)
[5]
  Test C control value: H (H shows the control value of more than 50%)

## Cc1cn(-c2ccccc2)c(-c2c(F)cccc2Br)c(C)c1=O [Compound 608]
[1]
  Test B control value: H (H shows the control value of more than 50%)
[2]
  Test G control value: H (H shows the control value of more than 50%)
[3]
  Test D control value: L (L shows the control value of 50% or less)
[4]
  Test E control value: H (H shows the control value of more than 50%)
[5]
  Test C control value: H (H shows the control value of more than 50%)

## Cc1cccc(F)c1-c1c(Cl)c(=O)c(Br)cn1-c1ccccc1 [Compound 609]
[1]
  Test B control value: H (H shows the control value of more than 50%)
[2]
  Test G control value: L (L shows the control value of 50% or less)
[3]
  Test D control value: L (L shows the control value of 50% or less)
[4]
  Test E control value: H (H shows the control value of more than 50%)
[5]
  Test C control value: H (H shows the control value of more than 50%)

## Cc1cccc(F)c1-c1c(C)c(=O)c(C)cn1-c1ccccc1 [Compound 610]
[1]
  Test B control value: H (H shows the control value of more than 50%)
[2]
  Test G control value: L (L shows the control value of 50% or less)
[3]
  Test D control value: L (L shows the control value of 50% or less)
[4]
  Test E control value: H (H shows the control value of more than 50%)
[5]
  Test C control value: H (H shows the control value of more than 50%)

## COc1cccc(F)c1-c1c(Cl)c(=O)c(Br)cn1-c1ccc(Br)cc1 [Compound 612]
[1]
  Test B control value: L (L shows the control value of 50% or less)
[2]
  Test G control value: H (H shows the control value of more than 50%)
[3]
  Test D control value: L (L shows the control value of 50% or less)
[4]
  Test E control value: L (L shows the control value of 50% or less)
[5]
  Test C control value: L (L shows the control value of 50% or less)

## CCc1c(-c2ccc(F)cc2Br)n(-c2ccccc2)cc(Br)c1=O [Compound 613]
[1]
  Test B control value: H (H shows the control value of more than 50%)
[2]
  Test G control value: L (L shows the control value of 50% or less)
[3]
  Test D control value: L (L shows the control value of 50% or less)
[4]
  Test E control value: H (H shows the control value of more than 50%)
[5]
  Test C control value: H (H shows the control value of more than 50%)

## Cc1cn(-c2ccccc2)c(-c2cccc(F)c2F)c(C)c1=O [Compound 615]
[1]
  Test B control value: H (H shows the control value of more than 50%)
[2]
  Test G control value: H (H shows the control value of more than 50%)
[3]
  Test D control value: L (L shows the control value of 50% or less)
[4]
  Test E control value: H (H shows the control value of more than 50%)
[5]
  Test C control value: H (H shows the control value of more than 50%)

## Cc1cn(-c2ccccc2)c(-c2ccc(F)c(F)c2)c(C)c1=O [Compound 616]
[1]
  Test B control value: H (H shows the control value of more than 50%)
[2]
  Test G control value: H (H shows the control value of more than 50%)
[3]
  Test D control value: L (L shows the control value of 50% or less)
[4]
  Test E control value: H (H shows the control value of more than 50%)
[5]
  Test C control value: H (H shows the control value of more than 50%)

## CCc1ccc(OC)cc1-n1cc(C)c(=O)c(C)c1-c1c(F)cccc1F [Compound 617]
[1]
  Test B control value: H (H shows the control value of more than 50%)
[2]
  Test G control value: H (H shows the control value of more than 50%)
[3]
  Test D control value: H (H shows the control value of more than 50%)
[4]
  Test E control value: H (H shows the control value of more than 50%)
[5]
  Test C control value: H (H shows the control value of more than 50%)

## CCc1ccc(OCC#N)cc1-n1cc(C)c(=O)c(C)c1-c1c(F)cccc1F [Compound 619]
[1]
  Test B control value: H (H shows the control value of more than 50%)
[2]
  Test G control value: H (H shows the control value of more than 50%)
[3]
  Test D control value: H (H shows the control value of more than 50%)
[4]
  Test E control value: H (H shows the control value of more than 50%)
[5]
  Test C control value: H (H shows the control value of more than 50%)

## CCc1c(-c2ccc(F)cc2C)n(-c2ccccc2)cc(Br)c1=O [Compound 622]
[1]
  Test B control value: L (L shows the control value of 50% or less)
[2]
  Test G control value: H (H shows the control value of more than 50%)
[3]
  Test D control value: L (L shows the control value of 50% or less)
[4]
  Test E control value: L (L shows the control value of 50% or less)
[5]
  Test C control value: H (H shows the control value of more than 50%)

## CCc1c(-c2ccc(F)cc2Cl)n(-c2ccccc2)cc(C)c1=O [Compound 623]
[1]
  Test B control value: H (H shows the control value of more than 50%)
[2]
  Test G control value: L (L shows the control value of 50% or less)
[3]
  Test D control value: H (H shows the control value of more than 50%)
[4]
  Test E control value: H (H shows the control value of more than 50%)
[5]
  Test C control value: H (H shows the control value of more than 50%)
